Consider six compounds from ChEMBL document CHEMBL4689842, “EUbOPEN Chemogenomics Library wave 1” (2021).

For part of its entries the source gives two or more results. This is not the full list of results. The source may hold further records. Values given together repeat one measurement across runs, samples, wells, individuals or studies.

Common to all, as to format: toxicity, cell-based
One data set deals with U2OS. The experiment in a line: Multiplex assay against U2OS. The settings on record: human. In a few lines: (§1)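 Imaging took place on a CQ1 microscope at 37°C and 5% CO2 once compound had been added to live cells stained at seeding with Hoechst33342, BioTracker Green Microtubule Cytoskeleton Dye, MitoTracker Red and Annexin V Alexa Fluor 680. CellPathfinder machine-learning gating classed cells as Hoechst high-intensity objects or normal cells, classed normal cells as having healthy, pyknosed or fragmented nuclei, and classed pyknosed cells as mitotic or apoptotic. Tubulin, mitochondrial-mass and membrane-permeability phenotypes are per cents of the healthy-nucleus cells.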

The subject of the next data set is Fibroblast. Briefly: Multiplex assay against human fibroblast. In a few lines:
as §1

Another data set deals with HEK-293T. The experiment in a line: Multiplex assay against HEK293T.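 For Population Tubulin-Different-Phenotype (%): share of the cells with healthy nuclei that show this phenotype.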 The settings on record: human. The essentials:
as §1

The mark [1] stands for this setting: 12 h, 10 µM, compound concentration 10 uM, replicate 2.
The mark [2] stands for this setting: 24 h, 10 µM, compound concentration 10 uM, replicate 1.
Where [3] appears, read: 24 h, 10 µM, compound concentration 10 uM, replicate 2.
The mark [4] stands for this setting: 12 h, 10 µM, compound concentration 10 uM, replicate 1.
[5] abbreviates: 12 h, 1 µM, compound concentration 1 uM, replicate 1.
[6] abbreviates: 24 h, 1 µM, compound concentration 1 uM, replicate 2.
Setting [7] is: 12 h, 1 µM, compound concentration 1 uM, replicate 2.
The mark [8] stands for this setting: 24 h, 1 µM, compound concentration 1 uM, replicate 1.
Where [9] appears, read: 48 h, 1 µM, compound concentration 1 uM, replicate 2.

Regarding `Cc1sc2c(c1C)C(c1ccc(Cl)cc1)=N[C@@H](CC(=O)OC(C)(C)C)c1nnc(C)n1-2`, the “Total Cell Count” value with U2OS (setting [1]) was 193 and 1392; with U2OS (setting [2]), 2033 and 200; with U2OS (setting [3]), 175 and 1354. For the same compound, in the data set with Fibroblast (setting [1]), the “Population Mitochondria Different-Phenotype (%)” value is 7% and 31%. For the same compound, the “Population Tubulin-Different-Phenotype (%)” value in the data set on Fibroblast (setting [1]) was 5% and 18%. Besides, the “Population Membrane Permeable-Phenotype (%)” value in the data set with Fibroblast (setting [3]) is 27% and 5%.
For the compound `CCn1c(=O)c(-c2ccc(Cl)cc2Cl)cc2cnc(Nc3ccc(N4CCNCC4)c(F)c3)nc21`, the “Population Fragmented Nuclei (%)” value is on record as 7%, 25%, 17% with U2OS (setting [4]) and 24%, 11%, 7% in the data set on HEK-293T (setting [1]). Also, the “Population Healthy Nuclei (%)” value in the data set on U2OS (setting [4]) is 23%, 10%, 71%; with U2OS (setting [1]), 18%, 27%, 66%; in the data set with U2OS (setting [2]), 7%, 37%, 66%; in the data set with HEK-293T (setting [4]), 4%, 31%, 54%; with HEK-293T (setting [1]), 16%, 53%, 84%; with HEK-293T (setting [2]), 5%, 46%, 62%. Besides, the “Population Hoechst High Intensity Objects (%)” value in the data set on U2OS (setting [4]) is given as 68%, 54%, 7%; with U2OS (setting [1]) it was 50%, 59%, 19%; in the data set with U2OS (setting [2]), 59%, 65%, 10%; in the data set with U2OS (setting [3]) it was 44%, 74%, 19%; with HEK-293T (setting [1]) it was 69%, 62%, 5%; with HEK-293T (setting [2]), 59%, 58%, 18%. The “Population Hoechst High Intensity Objects (%)” value in the data set with HEK-293T (setting [3]) is recorded as 60%, 66%, 6%. In addition, the “Population Membrane Permeable-Phenotype (%)” value in the data set with U2OS (setting [4]) is 69%, 100%, 8%; in the data set on U2OS (setting [2]), 100%, 95%, 12%; in the data set with U2OS (setting [3]), 92%, 93%, 22%; with HEK-293T (setting [1]), 14%, 10%, 3%; in the data set with HEK-293T (setting [2]), 33%, 22%, 8%; in the data set on HEK-293T (setting [3]), 13%, 5%, 4%. The “Population Membrane Permeable-Phenotype (%)” value is 15%, 5%, 2% with Fibroblast (setting [4]); 71%, 31%, 14% in the data set on Fibroblast (setting [1]); 38%, 15%, 3% in the data set on Fibroblast (setting [2]); 92%, 25%, 18% in the data set with Fibroblast (setting [3]). In addition, the “Population Mitochondria Different-Phenotype (%)” value is given as 38%, 87%, 15% with U2OS (setting [4]); 85%, 35%, 21% with U2OS (setting [1]); 80%, 68%, 22% in the data set with U2OS (setting [2]); 92%, 66%, 27% in the data set with U2OS (setting [3]); 40%, 36%, 10% in the data set with HEK-293T (setting [4]); 85%, 65%, 22% in the data set on HEK-293T (setting [1]). Also, the “Population Mitochondria Different-Phenotype (%)” value with HEK-293T (setting [2]) is 16%, 58%, 12%; in the data set on HEK-293T (setting [3]) it was 76%, 91%, 11%; in the data set with Fibroblast (setting [1]), 85%, 26%, 14%; in the data set on Fibroblast (setting [3]), 92%, 25%, 0%. Further, the “Population Mitotic Cells (%)” value was 2%, 10%, 61% with U2OS (setting [4]); 0%, 11%, 53% with U2OS (setting [1]); 12%, 8%, 39% with U2OS (setting [2]); 0% and 46% in the data set on U2OS (setting [3]); 20%, 38%, 77% in the data set on HEK-293T (setting [4]); 3%, 61%, 87% in the data set on HEK-293T (setting [1]). Besides, the “Population Mitotic Cells (%)” value with HEK-293T (setting [2]) was 17%, 25%, 72%; with HEK-293T (setting [3]) it was 26%, 0%, 87%; in the data set with Fibroblast (setting [1]) it was 0%, 75%, 21%; with Fibroblast (setting [3]), 0%, 28%, 26%. Besides, the “Population Pyknosed Nuclei (%)” value is 69%, 63%, 11% in the data set on U2OS (setting [4]); 36%, 50%, 14% with U2OS (setting [1]); 59%, 35%, 8% with HEK-293T (setting [1]); 56%, 19%, 17% in the data set on HEK-293T (setting [2]); 40%, 27%, 3% with HEK-293T (setting [3]); 36%, 7%, 19% in the data set with Fibroblast (setting [1]). In addition, the “Population Tubulin-Different-Phenotype (%)” value with U2OS (setting [4]) is 61%, 100%, 17%; in the data set on U2OS (setting [1]), 85%, 64%, 11%; in the data set with U2OS (setting [2]), 100% and 21%; with HEK-293T (setting [2]), 16%, 61%, 50%; with Fibroblast (setting [4]), 26%, 42%, 9%; in the data set with Fibroblast (setting [1]) it was 85%, 31%, 28%. Besides, the “Population Tubulin-Different-Phenotype (%)” value with Fibroblast (setting [3]) is listed as 84%, 8%, 12%. Besides, the “Population Normal (%)” value is 55%, 25%, 80% in the data set on U2OS (setting [3]) and 30%, 37%, 94% with HEK-293T (setting [1]). Moreover, the “Population Apoptotic (%)” value with HEK-293T (setting [4]) was 79%, 61%, 22%; in the data set with HEK-293T (setting [1]), 96%, 38%, 12%; with HEK-293T (setting [2]) it was 82%, 75%, 27%; in the data set with HEK-293T (setting [3]) it was 73%, 100%, 12%; with Fibroblast (setting [1]), 100%, 25%, 78%. Further, the “Total Cell Count” value is on record as 252, 812, 602 with HEK-293T (setting [4]); 286, 783, 1199 with HEK-293T (setting [1]); 824, 276, 1537 in the data set on HEK-293T (setting [3]); 218, 844, 485 in the data set with Fibroblast (setting [4]).
On to `CC(C)C(=O)Nc1n[nH]c2cc(-c3cccc(NS(=O)(=O)C4CC4)c3)ccc12`, for which the “Population Hoechst High Intensity Objects (%)” value with U2OS (setting [5]) is 1% and 4%. Moreover, the “Population Membrane Permeable-Phenotype (%)” value with U2OS (setting [6]) was 17% and 4%. Moreover, the “Population Pyknosed Nuclei (%)” value in the data set on HEK-293T (setting [6]) was 1% and 4%. For the same compound, in the data set on Fibroblast (setting [7]), the “Population Membrane Permeable-Phenotype (%)” value was 15% and 3%; the “Population Mitochondria Different-Phenotype (%)” value was 5% and 23%; the “Population Mitotic Cells (%)” value is 0% and 50%.
As to `CN1C(=O)c2sccc2N(C)c2nc(Nc3ccc(S(N)(=O)=O)cc3)ncc21`, the “Population Apoptotic (%)” value is 10% and 33% in the data set on U2OS (setting [1]); 36% and 0% in the data set on U2OS (setting [3]); 57% and 0% in the data set on Fibroblast (setting [1]). For the same compound, the “Population Hoechst High Intensity Objects (%)” value in the data set with HEK-293T (setting [2]) was 4% and 17%.
As to `COc1cc2nccc(Oc3ccc(NC(=O)Nc4cc(C)on4)c(Cl)c3)c2cc1OC.O`, the “Population Hoechst High Intensity Objects (%)” value in the data set with U2OS (setting [5]) was 4% and 1%; in the data set on U2OS (setting [8]), 4% and 1%. Also, the “Population Mitochondria Different-Phenotype (%)” value in the data set with U2OS (setting [5]) is 51% and 15%; in the data set on U2OS (setting [8]), 79% and 11%; with U2OS (setting [6]), 90% and 22%; with HEK-293T (setting [5]) it was 31% and 9%; in the data set on HEK-293T (setting [7]) it was 48% and 8%; in the data set with HEK-293T (setting [8]), 53% and 5%. The “Population Mitochondria Different-Phenotype (%)” value with HEK-293T (setting [6]) is 58% and 1%; with Fibroblast (setting [7]), 5% and 42%; with Fibroblast (setting [6]) it was 5% and 55%. Moreover, the “Population Tubulin-Different-Phenotype (%)” value is 100% and 8% in the data set with U2OS (setting [5]); 100% and 10% in the data set with U2OS (setting [8]); 97% and 22% in the data set on U2OS (setting [6]); 92% and 15% in the data set on HEK-293T (setting [5]); 99% and 12% in the data set with HEK-293T (setting [7]); 95% and 18% with HEK-293T (setting [8]). Besides, the “Population Tubulin-Different-Phenotype (%)” value in the data set on HEK-293T (setting [6]) was 99% and 14%; in the data set with Fibroblast (setting [8]), 49% and 8%; in the data set with Fibroblast (setting [6]) it was 15% and 55%. For the same compound, the “Population Fragmented Nuclei (%)” value was 11% and 2% in the data set with U2OS (setting [8]); 3% and 29% with HEK-293T (setting [6]). Further, the “Population Pyknosed Nuclei (%)” value is 25% and 4% in the data set with U2OS (setting [8]); 7% and 2% in the data set on HEK-293T (setting [6]); 7% and 32% in the data set on Fibroblast (setting [7]); 7% and 27% in the data set with Fibroblast (setting [6]). The “Population Membrane Permeable-Phenotype (%)” value in the data set with HEK-293T (setting [5]) is 24% and 4%; in the data set on HEK-293T (setting [7]) it was 22% and 3%. For the same compound, the “Population Apoptotic (%)” value in the data set with HEK-293T (setting [6]) was 18% and 4%. Further, the “Total Cell Count” value with HEK-293T (setting [6]) is 964 and 3175.
For `Nc1c(C(=O)NCc2ccc(C(=O)NCCCC3CCCCC3)cc2)cnn1-c1ccccc1` [SR-318], the “Population Apoptotic (%)” value is reported as 50%, 12%, 0% in the data set with U2OS (setting [7]); 50%, 12%, 0% in the data set with Fibroblast (setting [7]); 16%, 50%, 14% in the data set on Fibroblast (48 h, 10 µM, compound concentration 10 uM, replicate 2). Besides, the “Population Hoechst High Intensity Objects (%)” value in the data set on U2OS (setting [7]) is 4% and 26%; with U2OS (setting [6]) it was 5%, 2%, 22%; in the data set on U2OS (setting [9]), 4%, 1%, 16%; in the data set with Fibroblast (setting [7]), 4%, 26%, 3%; with Fibroblast (setting [1]), 7% and 1%; with Fibroblast (setting [6]), 5%, 2%, 22%. The “Population Hoechst High Intensity Objects (%)” value in the data set with Fibroblast (setting [3]) is 1% and 7%. Besides, the “Population Pyknosed Nuclei (%)” value in the data set with U2OS (setting [7]) is 6%, 18%, 4%; in the data set with Fibroblast (setting [7]), 6%, 18%, 4%; with Fibroblast (setting [9]), 4% and 1%. Moreover, the “Population Membrane Permeable-Phenotype (%)” value was 24%, 9%, 2% in the data set on Fibroblast (setting [4]); 10%, 7%, 3% in the data set on Fibroblast (setting [1]); 21%, 10%, 4% in the data set with Fibroblast (setting [2]).
